40 sequences from article PMC12820563, “FoxP3 forms a head-to-head dimer in vivo and stabilizes its multimerization on adjacent microsatellites” can be followed below.

Some of the results follow.

The test concerns the target T1, MBP-FoxP1dN (Mus musculus, UniProt P58462 326-579).
T1 sequence: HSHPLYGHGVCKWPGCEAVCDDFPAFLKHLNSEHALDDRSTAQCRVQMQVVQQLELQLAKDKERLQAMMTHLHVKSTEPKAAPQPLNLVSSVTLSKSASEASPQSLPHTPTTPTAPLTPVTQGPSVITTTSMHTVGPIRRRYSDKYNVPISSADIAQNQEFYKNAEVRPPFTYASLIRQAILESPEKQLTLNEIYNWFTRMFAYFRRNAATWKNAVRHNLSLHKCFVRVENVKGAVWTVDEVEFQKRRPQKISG
Put plainly: PD-seq (MBP pull-down with sequencing); 20 mM Tris-HCl pH 7.5, 100 mM NaCl, 1.5 mM MgCl2, 0.4 uM protein, 0.1 uM dsDNA library, 30 min, room temperature, amylose pull-down; high values mean tight binding. To be noted: protein: recombinant; tags: His6-MBP; chain copies: 2; dsDNA, one strand shown. The method, boiled down: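 Binding is reads-per-million enrichment of pull-down over input, with replicates pooled. It comes from 30 min room-temperature incubation in Tris pH 7.5 buffer with NaCl and MgCl2 of 0.4 µM His6-MBP-tagged, N-terminally truncated mouse FoxP3 or FoxP1 fragment from E. coli with 0.1 µM Klenow-filled degenerate double-stranded DNA library, followed by amylose resin capture, three washes and Illumina sequencing of the released DNA.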
As for “GATGATTGTTCTCCCAGCTGATGAATTTCTTACGTCGAGTAAACAAATTTTCCTAATCTTTCTGTTCAAGCGCCATCTAC”, the binding signal was 0.904 RPM ratio (pull-down/input).

Regarding “GATGATTGTTCTCCCAGCTGATGAATTGTGGCCATCGAGTAAACAAATTTTCCTAATCTTTCTGTTCAAGCGCCATCTAC”, the binding signal is 1.08 RPM ratio (pull-down/input).

Consider “GATGATTGTTCTCCCAGCTGATGAATTTAAGGGCTCGAGTAAACAAATTTTCCTAATCTTTCTGTTCAAGCGCCATCTAC”, for which the binding signal was 0.73 RPM ratio (pull-down/input).

Consider “GATGATTGTTCTCCCAGCTGATGAATTCTGTCTGTCGAGTAAACAAATTTTCCTAATCTTTCTGTTCAAGCGCCATCTAC”, for which the binding signal is 0.801 RPM ratio (pull-down/input).

For “GATGATTGTTCTCCCAGCTGATGAATTAATCAAGTCGAGTAAACAAATTTTCCTAATCTTTCTGTTCAAGCGCCATCTAC”, the binding signal is 0.946 RPM ratio (pull-down/input).

With “GATGATTGTTCTCCCAGCTGATGAATTGGTAGGGTCGAGTAAACAAATTTTCCTAATCTTTCTGTTCAAGCGCCATCTAC”, the binding signal is 0.808 RPM ratio (pull-down/input).

On to “GATGATTGTTCTCCCAGCTGATGAATTGGCGCAGTCGAGTAAACAAATTTTCCTAATCTTTCTGTTCAAGCGCCATCTAC”, for which the binding signal is 0.871 RPM ratio (pull-down/input).

Consider “GATGATTGTTCTCCCAGCTGATGAATTTCGAGTCTCGAGTAAACAAATTTTCCTAATCTTTCTGTTCAAGCGCCATCTAC”, for which the binding signal is 0.779 RPM ratio (pull-down/input).

For the sequence “GATGATTGTTCTCCCAGCTGATGAATTCTTTTAGTCGAGTAAACAAATTTTCCTAATCTTTCTGTTCAAGCGCCATCTAC”, the binding signal is 0.943 RPM ratio (pull-down/input).

In the case of “GATGATTGTTCTCCCAGCTGATGAATTGGCCAGGTCGAGTAAACAAATTTTCCTAATCTTTCTGTTCAAGCGCCATCTAC”, the binding signal was 0.73 RPM ratio (pull-down/input).

As to “GATGATTGTTCTCCCAGCTGATGAATTACAACCTTCGAGTAAACAAATTTTCCTAATCTTTCTGTTCAAGCGCCATCTAC”, the binding signal is 1.27 RPM ratio (pull-down/input).

As to “GATGATTGTTCTCCCAGCTGATGAATTTAACAACTCGAGTAAACAAATTTTCCTAATCTTTCTGTTCAAGCGCCATCTAC”, the binding signal is 1.02 RPM ratio (pull-down/input).

In the case of “GATGATTGTTCTCCCAGCTGATGAATTAATAGGCTCGAGTAAACAAATTTTCCTAATCTTTCTGTTCAAGCGCCATCTAC”, the binding signal is 0.909 RPM ratio (pull-down/input).

“GATGATTGTTCTCCCAGCTGATGAATTCTAGGGCTCGAGTAAACAAATTTTCCTAATCTTTCTGTTCAAGCGCCATCTAC”: the binding signal is 0.759 RPM ratio (pull-down/input).

For the sequence “GATGATTGTTCTCCCAGCTGATGAATTGGCGGTCTCGAGTAAACAAATTTTCCTAATCTTTCTGTTCAAGCGCCATCTAC”, the binding signal was 0.801 RPM ratio (pull-down/input).

Take “GATGATTGTTCTCCCAGCTGATGAATTCGGCCGCTCGAGTAAACAAATTTTCCTAATCTTTCTGTTCAAGCGCCATCTAC”: the binding signal was 0.734 RPM ratio (pull-down/input).

Turning to “GATGATTGTTCTCCCAGCTGATGAATTGAATGACTCGAGTAAACAAATTTTCCTAATCTTTCTGTTCAAGCGCCATCTAC”, the binding signal is 0.85 RPM ratio (pull-down/input).

Take “GATGATTGTTCTCCCAGCTGATGAATTACGGCGATCGAGTAAACAAATTTTCCTAATCTTTCTGTTCAAGCGCCATCTAC”: the binding signal was 0.945 RPM ratio (pull-down/input).

With “GATGATTGTTCTCCCAGCTGATGAATTGCAGCGTTCGAGTAAACAAATTTTCCTAATCTTTCTGTTCAAGCGCCATCTAC”, the binding signal was 1.08 RPM ratio (pull-down/input).

“GATGATTGTTCTCCCAGCTGATGAATTGGTAAATTCGAGTAAACAAATTTTCCTAATCTTTCTGTTCAAGCGCCATCTAC”: the binding signal was 1.21 RPM ratio (pull-down/input).

As to “GATGATTGTTCTCCCAGCTGATGAATTCGGGTATTCGAGTAAACAAATTTTCCTAATCTTTCTGTTCAAGCGCCATCTAC”, the binding signal was 0.937 RPM ratio (pull-down/input).

Regarding “GATGATTGTTCTCCCAGCTGATGAATTTCACTTGTCGAGTAAACAAATTTTCCTAATCTTTCTGTTCAAGCGCCATCTAC”, the binding signal was 0.872 RPM ratio (pull-down/input).

Consider “GATGATTGTTCTCCCAGCTGATGAATTTTACCAATCGAGTAAACAAATTTTCCTAATCTTTCTGTTCAAGCGCCATCTAC”, for which the binding signal is 1.04 RPM ratio (pull-down/input).

Regarding “GATGATTGTTCTCCCAGCTGATGAATTCCGATTCTCGAGTAAACAAATTTTCCTAATCTTTCTGTTCAAGCGCCATCTAC”, the binding signal is 0.803 RPM ratio (pull-down/input).

On to “GATGATTGTTCTCCCAGCTGATGAATTCACTCCATCGAGTAAACAAATTTTCCTAATCTTTCTGTTCAAGCGCCATCTAC”, for which the binding signal was 0.919 RPM ratio (pull-down/input).

With “GATGATTGTTCTCCCAGCTGATGAATTGACTCGTTCGAGTAAACAAATTTTCCTAATCTTTCTGTTCAAGCGCCATCTAC”, the binding signal was 1 RPM ratio (pull-down/input).

Regarding “GATGATTGTTCTCCCAGCTGATGAATTATTAGCCTCGAGTAAACAAATTTTCCTAATCTTTCTGTTCAAGCGCCATCTAC”, the binding signal is 1.06 RPM ratio (pull-down/input).

Take “GATGATTGTTCTCCCAGCTGATGAATTCGAATCGTCGAGTAAACAAATTTTCCTAATCTTTCTGTTCAAGCGCCATCTAC”: the binding signal is 0.802 RPM ratio (pull-down/input).

For the sequence “GATGATTGTTCTCCCAGCTGATGAATTGGGTGTATCGAGTAAACAAATTTTCCTAATCTTTCTGTTCAAGCGCCATCTAC”, the binding signal was 1.17 RPM ratio (pull-down/input).

Regarding “GATGATTGTTCTCCCAGCTGATGAATTGTGGGGATCGAGTAAACAAATTTTCCTAATCTTTCTGTTCAAGCGCCATCTAC”, the binding signal is 0.958 RPM ratio (pull-down/input).

On to “GATGATTGTTCTCCCAGCTGATGAATTTGTGTGCTCGAGTAAACAAATTTTCCTAATCTTTCTGTTCAAGCGCCATCTAC”, for which the binding signal is 1.23 RPM ratio (pull-down/input).

Take “GATGATTGTTCTCCCAGCTGATGAATTCCCTACCTCGAGTAAACAAATTTTCCTAATCTTTCTGTTCAAGCGCCATCTAC”: the binding signal was 0.836 RPM ratio (pull-down/input).

In the case of “GATGATTGTTCTCCCAGCTGATGAATTTTTCCTATCGAGTAAACAAATTTTCCTAATCTTTCTGTTCAAGCGCCATCTAC”, the binding signal was 0.945 RPM ratio (pull-down/input).

On to “GATGATTGTTCTCCCAGCTGATGAATTCAAGTCGTCGAGTAAACAAATTTTCCTAATCTTTCTGTTCAAGCGCCATCTAC”, for which the binding signal was 0.874 RPM ratio (pull-down/input).

Take “GATGATTGTTCTCCCAGCTGATGAATTATGCAGGTCGAGTAAACAAATTTTCCTAATCTTTCTGTTCAAGCGCCATCTAC”: the binding signal was 0.96 RPM ratio (pull-down/input).

On to “GATGATTGTTCTCCCAGCTGATGAATTATGGATTTCGAGTAAACAAATTTTCCTAATCTTTCTGTTCAAGCGCCATCTAC”, for which the binding signal was 0.915 RPM ratio (pull-down/input).

For the sequence “GATGATTGTTCTCCCAGCTGATGAATTTAACTGGTCGAGTAAACAAATTTTCCTAATCTTTCTGTTCAAGCGCCATCTAC”, the binding signal was 0.855 RPM ratio (pull-down/input).

Turning to “GATGATTGTTCTCCCAGCTGATGAATTAAAAGTATCGAGTAAACAAATTTTCCTAATCTTTCTGTTCAAGCGCCATCTAC”, the binding signal was 1.13 RPM ratio (pull-down/input).

In the case of “GATGATTGTTCTCCCAGCTGATGAATTTTATTGCTCGAGTAAACAAATTTTCCTAATCTTTCTGTTCAAGCGCCATCTAC”, the binding signal was 1.21 RPM ratio (pull-down/input).

As to “GATGATTGTTCTCCCAGCTGATGAATTATCGAGCTCGAGTAAACAAATTTTCCTAATCTTTCTGTTCAAGCGCCATCTAC”, the binding signal is 0.907 RPM ratio (pull-down/input).
